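Assay format: 96-well plates, 48-hour exposure. GI50 is the concentration that inhibits growth by half. TGI is the concentration that stops growth completely.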
These compounds were tested on NCI-H322M lung (assay: DTP human tumour cell line panel, 48 h).

Question: With `CC1=CC(c2ccccc2)n2c(nc3cc4ccccc4cc32)N1` (stereo not given) as the compound, how does the TGI read?
Answer: Its TGI is over 100 µM.

Question: `COc1cc(C(=O)/C=C/c2c(C(F)(F)F)nc3sccn23)cc(OC)c1OC` was tested. Which GI50 did it give?
Answer: The GI50 was 1.96 µM.

Question: And the TGI?
Answer: The TGI was 5.54 µM.

Question: Which TGI does the source give for `COc1cc(O)c2c(c1)C(O)C(O)CC1OC1C(=O)/C=C/CC(C)OC2=O` (stereo not given) here?
Answer: Its TGI is 45.5 µM.

Question: With `COc1ccc(NC(=O)C2=C(SC)C(=O)N=C2N)cc1` as the compound, how does the TGI read?
Answer: Its TGI is over 100 µM.

Question: Which TGI does the source give for `Cc1cccc(N2CCN(S(=O)(=O)c3ccc(Cl)cc3)C2=N)c1C` here?
Answer: The TGI was over 100 µM.

Question: With `Cc1cnc2[nH]c(-c3ccccc3)cc(=O)c2c1` as the compound, how does the TGI read?
Answer: The TGI was over 100 µM.

Question: For `C/C(=C/CC[C@](C)(OC1OC(CO)C(O)C(O)C1O)[C@H]1CC[C@]2(C)[C@@H]1CC[C@@H]1[C@@]3(C)CC[C@H](O)C(C)(C)[C@@H]3C[C@H](O)[C@]12C)CO` (stereo not given in full), which TGI is on record?
Answer: The TGI was over 100 µM.

Question: Which results are given for `COc1cc(/C=C\c2cccnc2Nc2ccccc2)cc(OC)c1OC`?
Answer: GI50: 21.1 µM; TGI: > 100 µM

— PubChem BioAssay (NCI)
